The results in this text go back to patent US20250177376A1, “ALPHA 2 ADRENERGIC RECEPTOR BLOCKADE FOR THE TREATMENT OF C. DIFFICILE COLITIS” (University of Virginia Patent Foundation, priority 2022, published 2025).

This assay deals with norepinephrine. The experiment in a line: Norepinephrine levels in cecal tissue of CDI mice. The following applies: 2 days post infection; 6-OHDA on days 8, 7 and 6 prior to infection. The protocol: To test the role of the sympathetic nervous system in C. difficile infection (CDI) disease progression, a mouse model of infection was employed. Prior to infection, mice are administered 6-hydroxydopamine (6-OHDA) to peripherally destroy sympathetic termini.

Turning to `NCCc1cc(O)c(O)cc1O` [6-OHDA, 6-hydroxydopamine], the “levels of norepinephrine in cecal tissue” value is on record as “appreciably reduced”.
